According to PubChem BioAssay AID1346428 (National Center for Advancing Translational Sciences (NCATS), 2018):
Several values for one entry are separate records, joined by “and”; a condition that tells them apart may be missing. Equal values may be shown once. Screen size: about 48,000 compounds; about 1,200 (2.5%) were called active. Roughly 2% stayed inconclusive and do not appear here.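 Rule for the calls: active = activation of at least 60% and not above a set upper limit (about 1 call in 100 departs from these limits); inconclusive = activation of 40% to 60%, or above that upper limit; inactive = activation under 40%.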 This is one part of the list.
Note: 0% is about no effect.

Each compound was assayed against Probable G-protein coupled receptor 32 (Homo sapiens) (UniProt O75388) (assay: qHTS for Agonists of Human Resolvin D1 Receptor DRV1). Details: CHO-K1 GPR32 beta-arrestin PathHunter luminescence, 90 min; at 76.9 µM; stronger effect = higher value; zero percent set by DMSO-only wells.
Sequence of UniProt O75388 (O75388 whole entry, looked up, the tested form may be a part): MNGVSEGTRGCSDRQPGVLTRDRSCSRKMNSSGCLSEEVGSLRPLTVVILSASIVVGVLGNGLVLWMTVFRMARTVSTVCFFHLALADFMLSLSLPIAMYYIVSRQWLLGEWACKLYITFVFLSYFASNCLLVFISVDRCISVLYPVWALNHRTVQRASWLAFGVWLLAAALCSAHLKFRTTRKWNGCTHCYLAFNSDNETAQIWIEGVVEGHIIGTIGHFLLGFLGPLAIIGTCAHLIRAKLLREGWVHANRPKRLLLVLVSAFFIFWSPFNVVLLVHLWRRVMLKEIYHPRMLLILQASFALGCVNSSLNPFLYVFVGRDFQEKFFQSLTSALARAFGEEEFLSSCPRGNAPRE
Outline: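 Agonism was scored by beta-Gal fragment complementation (chemiluminescent read, 1 h detection at ambient temperature) reporting beta-arrestin binding to GPR32 in engineered CHO-K1 cells. Compound treatment lasted 90 min at 37 C, normalized to a DMSO basal control.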
With Cc1ccc(NC(=O)c2cc(S(=O)(=O)NC3CCCCCC3)ccc2F)cc1F the activation was inactive: -15.6%.
With COc1ccc2[nH]cc(CCN=C(NC(=O)c3cccc(Cl)c3)Nc3nc(C)cc(C)n3)c2c1 the activation was inactive: -5.21%.
With COc1ccc(NC(=O)Cn2c(=O)oc3cc(Cl)ccc32)c(OC)c1 the activation was inactive: -3.04%.
In the case of Cn1c(=O)oc2cc(S(=O)(=O)N3CCCC(C(=O)NCc4ccccc4Cl)C3)ccc21 (centres undefined), the activation is reported as inactive: 13.5%.
With Cc1cc(C)c2c(n1)SCC(=O)N2CC(=O)Nc1ccccc1C the activation was inactive: -13.2%.
For CNC(=O)C1CCC(Cn2c(=O)c3sccc3n(CC(=O)NCc3ccc(C)cc3)c2=O)CC1 (centres undefined), the activation was inactive: -11.4%.
CCc1ccc(NC(=O)CSc2nc(C)c(C(=O)Nc3ccc(Cl)cc3)c(-c3ccc(OC)cc3)c2C#N)cc1 was tested, and the activation was inactive: 0.691%.
For Cc1ccc(C)c(NC(=O)CCCn2c(C)c3cnn(-c4ccccc4)c(=O)c3c2C)c1, the activation was inactive: -29.2%.
In the case of O=C(CSc1nc2c([nH]c3ccccc32)c(=O)n1-c1ccc(F)cc1)NCC1CCCO1 (centres undefined), the activation is reported as inactive: -44.5%.
For Cc1ccc(C2C(=O)N(C3CCCCCC3)CC(=O)N2C(C)C)cc1 (centres undefined), the activation was inactive: -20.1%.
For Cc1ccccc1C(=O)Nc1sc2c(c1C(=O)O)CCC(C(C)(C)C)C2 (centres undefined), the activation was inactive: -0.511%.
In the case of O=C(CSc1nc2c([nH]c3ccccc32)c(=O)n1-c1ccccc1)N1CCCc2ccccc21, the activation is reported as inactive: -14.1%.
With CCCCc1nn2c(=O)cc(CN(CC)c3ccccc3)nc2s1 the activation was inactive: 13.7%.
With COc1ccc(NC(=O)Cn2nc3c(cc2=O)CCCC3)cc1Cl the activation was inactive: 2.58%.
COc1cccc(C(=O)c2cn(CC(=O)Nc3cc(Cl)c(OC)cc3OC)c3nc(C)ccc3c2=O)c1 was tested, and the activation was inactive: -3.75%.
Cc1cccc(NC(=O)c2cc(CN3CCOCC3)on2)c1C was tested, and the activation was inactive: -1.5%.
Cc1cccc(S(=O)(=O)c2cn(C)c3cc(N4CCCCCC4)c(F)cc3c2=O)c1 was tested, and the activation was inactive: 2.79%.
With O=C(CSc1ccccc1)N1CCc2c([nH]c3ccccc23)C1c1ccc(Cl)cc1 (centres undefined) the activation was inactive: -33.7%.
For Cc1ccc(NC(=O)NCCOCCn2c(=O)oc3ccccc32)c(C)c1, the activation was inactive: -12.7%.
For CC(C)c1ccc(Cc2cn3cc(-c4cc5ccccc5oc4=O)nc3s2)cc1, the activation was inactive: 4.26%.
In the case of COc1cccc(-n2c(SCC(=O)Nc3cccc(C)c3)nc3c([nH]c4ccccc43)c2=O)c1, the activation is reported as inactive: -6.57%.
For O=C(NCc1ccc(Cl)cc1)c1cc2ccc3cccnc3c2[nH]1, the activation was inactive: 0.618%.
With COc1ccccc1N1CCN(S(=O)(=O)c2ccc(-c3ccno3)cc2OC)CC1 the activation was inactive: -6.94%.
With CC1=C(c2ccc(F)cc2)S(=O)(=O)N=C1N1CCC(C(=O)NCCc2ccccc2)CC1 the activation was inactive: -1.67%.
In the case of Cc1nc(N2CCCC2)ncc1C(=O)NCc1ccc(Cl)cc1, the activation is reported as inactive: 26.4%.
With COc1ccc(OC)c(C2=NS(=O)(=O)N(C)C(C(=O)Nc3ccc(C(C)=O)cc3)=C2)c1 the activation was inactive: -11.8%.
In the case of Cc1ccc(C)c(NC(=O)C2CCN(c3ncnc4c3nc3n4CCCCC3)CC2)c1, the activation is reported as inactive: -15%.
For COc1cc(CN(C(=O)COc2ccc(Cl)cc2)c2ccccn2)cc(OC)c1OC, the activation was inactive: 9.59%.
With CC(C)(C)c1ccc(C(=O)NNc2ncnc3c2cnn3-c2ccc(Cl)cc2)cc1 the activation was inactive: 25.7%.
With Cc1cccc(C)c1NC(=O)NCCCN1CCN(c2ccccc2)CC1 the activation was inactive: -5.16%.
CCCCN1C(=O)CN(C2CCCCCC2)C(=O)C1c1ccc(OCC)c(OC)c1 (centres undefined) was tested, and the activation was inactive: -13.6%.
COCCN(Cc1ccco1)C(=O)Cn1ncc2c([nH]c3ccccc32)c1=O was tested, and the activation was inactive: 26.4%.
With Cc1cc2c(cc1S(=O)(=O)CCC(=O)N(C)C1CCCCC1)OCC(=O)N2 the activation was inactive: 4.65%.
COc1cccc(NC(=O)CCc2nc(-c3ccc(C(C)(C)C)cc3)no2)c1 was tested, and the activation was inactive: 5.49%.
In the case of Cc1ccc(-c2nnn3c2nc(NCCc2ccccc2)c2ccccc23)cc1, the activation is reported as inactive: 9.04%.
In the case of CN(c1ncnc2c1c(-c1ccccc1)cn2-c1cccc(Cl)c1)C1CCCCC1, the activation is reported as inactive: -34.7%.
For Cc1cccc(-n2c(=O)c3c(c4cc(C)ccc4n3C)n(C)c2=O)c1, the activation was inactive: -0.0798%.
For Cc1ccc(-c2nnc(Nc3cccc(Br)c3)c3ccccc23)cc1S(=O)(=O)N1CCCCC1, the activation was inactive: -3.16%.
CCc1ccc(CN(Cc2ccco2)C(=O)COc2ccccc2Cl)cc1 was tested, and the activation was inactive: -15.6%.
Cc1c(Cl)cccc1NC(=O)N1CCC(CN2CCOCC2)CC1 was tested, and the activation was inactive: -3.32%.
For OCc1ccc(Cl)cc1Cl, the activation was inactive: -72%.
Cc1ccc(C)c(C(=O)CSc2nc(-c3ccccc3)nc3c2CCCC3)c1 was tested, and the activation was inactive: 11.7%.
In the case of O=C(c1ccc([N+](=O)[O-])cc1)N(Cc1ccco1)c1ccccn1, the activation is reported as inactive: -1.31%.
In the case of CC(=O)OCc1cnc(C)c2oc(=O)c(C(=O)Nc3cc(F)ccc3C)cc12, the activation is reported as inactive: 2.89%.
CCOc1ccccc1NC(=O)C1CCCN(c2ncnc3onc(-c4ccc(F)cc4)c23)C1 (centres undefined) was tested, and the activation was inactive: -12%.
For CC(C)C(=O)Nc1nnc(S(=O)(=O)N(C)Cc2ccc(F)cc2)s1, the activation was inactive: -9.2%.
For COc1ccc(NC(=O)C2CCN(S(=O)(=O)c3cn(C)cn3)CC2)cc1Cl, the activation was inactive: -15.8%.
In the case of Cc1ccc(NC(=O)CSc2nnc(COc3ccc(Cl)cc3)o2)cc1, the activation is reported as inactive: -9.97%.
With COc1ccc(C2C(C(=O)Nc3ccc(C)cc3C)=C(C)Nc3nc(SC)nn32)cc1OC (centres undefined) the activation was inactive: -1.97%.
With NC(=O)CN1C(=O)C2(SCC(=O)N2c2cccc(F)c2)c2ccccc21 (centres undefined) the activation was inactive: -10.4%.
With CCCCn1c(=O)c2oc3ccccc3c2n(Cc2ccc(OC)cc2)c1=O the activation was inactive: -5.54%.
In the case of Cc1cc(C)cc(NC(=O)c2cn3c4c(ccc(Cl)c4c2=O)OC(C)C3)c1 (centres undefined), the activation is reported as inactive: -6.83%.
COc1ccc(S(=O)(=O)Nc2ccc3c(c2)sc(=O)n3C)cc1Cl was tested, and the activation was inactive: -8.39%.
With COc1ccccc1CNC(=O)c1ccc(-c2nc(CS(=O)c3ccc(C)cc3)c(C)o2)cc1 (centres undefined) the activation was inactive: 23.9%.
Cc1ccc2c(c1)-c1onc(C(=O)N(C)c3cccc(C(F)(F)F)c3)c1CO2 was tested, and the activation was inactive: 21.8%.
For Cc1ccc2c(CC(=O)Nc3cccc(C(F)(F)F)c3)coc2c1, the activation was inactive: 36.4%.
For CC1(C)Cc2c(c(N3CCOCC3)nc3sc(C(=O)Nc4ccc(Cl)cc4)c(N)c23)CO1, the activation was inactive: -9.59%.
With Cc1cccc(NC(=O)CSc2nc(-c3cccc(C)c3)nc3c2Cc2c(CO)cnc(C)c2O3)c1 the activation was inactive: 16.1%.
For CCOc1ccc(S(=O)(=O)Nc2cccc(-c3ccc(N4CCCC4)nn3)c2)cc1, the activation was inactive: -1.02%.
With CCc1nc2ccc(C(=O)NCc3ccc(OC)c(OC)c3)cc2nc1CC the activation was inactive: -13.7%.
For CCCCOc1ccc(C(=O)Nc2cc(-c3ccc(C)cc3)no2)cc1, the activation was inactive: 6.74%.
In the case of CCOC(=O)c1sc(N2C(=O)c3oc4ccccc4c(=O)c3C2c2ccc(C(C)(C)C)cc2)nc1C (centres undefined), the activation is reported as inactive: -3.32%.
For CCOC(=O)COc1ccc(/C=C(\C#N)c2nc3ccc(C)cc3[nH]2)cc1OC, the activation was inactive: 39%.
With Cc1ccccc1CNC(=O)Cn1c(C)c2cnn(-c3ccccc3)c(=O)c2c1C the activation was inactive: -12.3%.
With Cc1oc2ncn(CC(C)C)c(=O)c2c1C(=O)NCCc1ccc(Cl)cc1 the activation was inactive: -10.4%.
For Cc1cccn2c3c(c(=O)nc12)C(c1cccc(F)c1)CC(=O)N3 (centres undefined), the activation was inactive: 3.54%.
CCC1CCCCN1Cc1c(O)ccc2c(=O)c(Oc3ccccc3Cl)c(C(F)(F)F)oc12 (centres undefined) was tested, and the activation was active: 102%.
For Cc1ccc(CNC(=O)c2ccc3c(c2)CCN3S(=O)(=O)c2ccccc2)cc1, the activation was inactive: -7.94%.
CN1C[C@@H]2C[C@H]1CN2c1cc2c(cc1F)c(=O)c(C(=O)O)cn2C1CC1 was tested, and the activation was inactive: -3.51%.
With O=C(Cn1cnc2nc3c(cc2c1=O)CCCC3)N1CCN(c2cccc(C(F)(F)F)c2)CC1 the activation was inactive: -5.78%.
In the case of CCOc1ccc(OCC)c(NS(=O)(=O)c2c(C)[nH]c(=O)[nH]c2=O)c1, the activation is reported as inactive: -12.5%.
With Cc1ccc(C)c(NC(=O)CSc2c(C)cnc3c2c(=O)n(C)c(=O)n3C)c1 the activation was inactive: 10.5%.
With N[C@@H](Cc1c[nH]c2ccc(O)cc12)C(=O)O the activation was inactive: -18.6% and inactive: 14.8%.
With COc1ccc(CCNC(=O)c2csc3c2CCCCC3)c(OC)c1 the activation was inactive: 0.748%.
COc1ccc(Cn2c(C(=O)O)c(CNC3CCCC3)c3ccc(C)cc32)cc1 was tested, and the activation was inactive: 6.1%.
In the case of CC(=O)c1ccc(S(=O)(=O)Nc2ccc(-c3ccc(N4CCCCC4)nn3)cc2)cc1, the activation is reported as inactive: -9.6%.
In the case of Cc1ccc(N(C)C(=O)CC(C)S(=O)(=O)c2ccc3c(c2)NC(=O)CO3)cc1 (centres undefined), the activation is reported as inactive: 30.1%.
With CCc1ccc(NC(=O)Cn2ccn(-c3ccc(OC)cc3)c(=O)c2=O)cc1 the activation was inactive: -45.9%.
CCC(=O)N1c2ccccc2CC1C(=O)N1CCN(c2cccc(OC)c2)CC1 (centres undefined) was tested, and the activation was inactive: 11.6%.
In the case of Cc1cccc(NC(=O)CC2Nc3cccc4cccc(c34)NC2=O)c1 (centres undefined), the activation is reported as inactive: -13.1%.
In the case of COC(=O)c1cc2oc(C)cc2n1Cc1cc(C)ccc1C, the activation is reported as inactive: -25.6%.
In the case of Cc1ccc(C)c(NC(=O)Cn2ncc3c([nH]c4ccccc43)c2=O)c1, the activation is reported as inactive: -3.91%.
In the case of CCOc1ccc(NC(=O)CSc2nc(-c3cccc(Cl)c3)nc3c2Cc2c(CO)cnc(C)c2O3)cc1, the activation is reported as inactive: -10.9%.
In the case of COc1ccc(C2c3c(n(C)c4ccccc34)C(=O)N2CC(=O)Nc2c(C)cc(C)cc2C)cc1 (centres undefined), the activation is reported as inactive: -20.7%.
